Results on 83 variants are retold here after the RNAGym collection of RNA variant scans (doi:10.1073/pnas.2313332121).

Variants at the floor of the assay are shown more often than the library holds them. A value given as a limit tells only on which side of the number the result lay.

The labels stand for the following.
B1: TPR 5TU (parent)
chain: GGAUCUUCUCGAUCUAACAAAAAAGACAAAUCUGCCACAAAGCUUGAGAGCAUCUUCGGAUGCAGAGGCGGCAGCCUUCGGUGGCGCGAUAGCGCCAACGUUCUCAACUAUGACACGCAAAACGCGUGCUCCGUUGAAUGGAGUUUAUCAUG

The variants in this data set derive from B1. In words: polymerase ribozyme fitness, log enrichment relative to wild type (log ratio); higher = more active; in vitro selection for triplet polymerase activity. In short, it runs like this: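 For each subunit of a heterodimeric triplet polymerase ribozyme, a mutant library was built by PCR and transcribed, then taken through a single in vitro selection round in triplicate. Selection involved annealing to a biotinylated primer, the partner subunit and triplets, incubation frozen at −7 °C, gel excision of extended constructs, capture on streptavidin beads and RT-PCR. Genotypes were retained after Illumina sequencing of inputs and outputs only with ≥10 input reads and ≥1 read in each output. Fitness is defined as the logarithm of a genotype's enrichment relative to wild-type enrichment, using inverse-variance-weighted averages across replicates, with the logarithm taken to base 2.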
In the case of A28U A40U G48A A119U U127C U146G, the “polymerase ribozyme fitness (log ratio)” value is at most -4.2.

Turning to C27U G48U G141A U148C, the “polymerase ribozyme fitness (log ratio)” value was at most -4.2.

Consider A28C C57U U82C C85G U111G A137U, for which the “polymerase ribozyme fitness (log ratio)” value is at most -4.2.

Consider C27U A41C G59A C79G G83U, for which the “polymerase ribozyme fitness (log ratio)” value was at most -4.2.

For C27U A97U C116U A120C, the “polymerase ribozyme fitness (log ratio)” value is -3.06.

Turning to C27U U56A G84U G86C C114G U145A, the “polymerase ribozyme fitness (log ratio)” value is at most -4.2.

As for C27G U33C G68U, the “polymerase ribozyme fitness (log ratio)” value was at most -4.2.

C27U A28C U44G A52C C93A: the “polymerase ribozyme fitness (log ratio)” value is -4.1.

Turning to A28G A41G U45A G94C A97U, the “polymerase ribozyme fitness (log ratio)” value is -3.76.

Turning to C27U C38A U45A G48C A52C C85U, the “polymerase ribozyme fitness (log ratio)” value was at most -4.2.

Consider A28G A39C U55A U56A G62C C76G A107G, for which the “polymerase ribozyme fitness (log ratio)” value is at most -4.2.

C27G U33C G46C C114U: the “polymerase ribozyme fitness (log ratio)” value was at most -4.2.

Take C27U A40G G83A U148G: the “polymerase ribozyme fitness (log ratio)” value was at most -4.2.

In the case of C27U G71U G133A U146G, the “polymerase ribozyme fitness (log ratio)” value was at most -4.2.

As to C27G G50C C51U C79U C93U, the “polymerase ribozyme fitness (log ratio)” value is at most -4.2.

Turning to A28G A52C U53C C57U C87A G141A, the “polymerase ribozyme fitness (log ratio)” value is at most -4.2.

With A28G G42A C76A A91U G117A, the “polymerase ribozyme fitness (log ratio)” value was at most -4.2.

As to A28G C76U C96A U151G, the “polymerase ribozyme fitness (log ratio)” value was at most -4.2.

In the case of A28C G59U G92A C95U A107G, the “polymerase ribozyme fitness (log ratio)” value is at most -4.2.

In the case of C27U C35U U53A U56G C57A C93A A113C A122G U146A C149G, the “polymerase ribozyme fitness (log ratio)” value is at most -4.2.

Take C27U A49G: the “polymerase ribozyme fitness (log ratio)” value was -2.49.

In the case of A28C U61A, the “polymerase ribozyme fitness (log ratio)” value was at most -4.2.

On to A28G G50C A60C A73G C85A C125A, for which the “polymerase ribozyme fitness (log ratio)” value is at most -4.2.

On to C27G G141U, for which the “polymerase ribozyme fitness (log ratio)” value is -4.04.

For the variant C27U U33A A40U U53A G88A, the “polymerase ribozyme fitness (log ratio)” value is at most -4.2.

C27U A28U U55C C87U G94A C125A G126U: the “polymerase ribozyme fitness (log ratio)” value is at most -4.2.

As for A28U A40C G46C G59A G67C A113C G143A, the “polymerase ribozyme fitness (log ratio)” value was at most -4.2.

Regarding C27U U61G U82G A89U A91G G100A A113U G140U, the “polymerase ribozyme fitness (log ratio)” value is at most -4.2.

On to C27U A40C U55A C114U U139G, for which the “polymerase ribozyme fitness (log ratio)” value is -3.95.

Turning to C27U A66G C87A C116A, the “polymerase ribozyme fitness (log ratio)” value was at most -4.2.

For the variant C27U A47U C69U C93G U109G, the “polymerase ribozyme fitness (log ratio)” value is at most -4.2.

As for A28U A41C A52G G81A U90C G126U C149U, the “polymerase ribozyme fitness (log ratio)” value is at most -4.2.

In the case of A28G A73G C87G A98G U102G, the “polymerase ribozyme fitness (log ratio)” value is at most -4.2.

On to A28G U31G A37C C54G G84U A98G A115U C123G C125U, for which the “polymerase ribozyme fitness (log ratio)” value is at most -4.2.

Take A28C A37G G48C C87A A97U C125U: the “polymerase ribozyme fitness (log ratio)” value is at most -4.2.

As for C27G C85A U90G, the “polymerase ribozyme fitness (log ratio)” value is at most -4.2.

With A28G U56A, the “polymerase ribozyme fitness (log ratio)” value is -3.7.

Regarding A28C C51U, the “polymerase ribozyme fitness (log ratio)” value is at most -4.2.

On to C27U A37U C125U, for which the “polymerase ribozyme fitness (log ratio)” value is -3.74.

On to A28G U53A C76A G100C G128A, for which the “polymerase ribozyme fitness (log ratio)” value is at most -4.2.

As for C27G G34C A47C G80U G140C, the “polymerase ribozyme fitness (log ratio)” value was at most -4.2.

For C27G C85A U130G G136U U145A, the “polymerase ribozyme fitness (log ratio)” value was at most -4.2.

In the case of C27U C43U A91G G92A A121G, the “polymerase ribozyme fitness (log ratio)” value was at most -4.2.

Consider A28C C36U U44C G59A U82C C85A A97U C108U C114U C131G A137C U151A, for which the “polymerase ribozyme fitness (log ratio)” value was at most -4.2.

Turning to A28C U77G U90C C114U, the “polymerase ribozyme fitness (log ratio)” value was at most -4.2.

On to C27U G84A A89G, for which the “polymerase ribozyme fitness (log ratio)” value is -3.59.

As for A28C C87U, the “polymerase ribozyme fitness (log ratio)” value is at most -4.2.

As to A28C U45A G92U U134G, the “polymerase ribozyme fitness (log ratio)” value was at most -4.2.

With C27G C43U G50U G68C U90A G92A G100U U135G, the “polymerase ribozyme fitness (log ratio)” value was at most -4.2.

For the variant C27U C75U, the “polymerase ribozyme fitness (log ratio)” value is -1.25.

As for C27G G67C G141A A147U G152A, the “polymerase ribozyme fitness (log ratio)” value was at most -4.2.

Take A28C C38U G70C: the “polymerase ribozyme fitness (log ratio)” value is at most -4.2.

Consider C27U A41G A52C U61A G68A G94U U148A, for which the “polymerase ribozyme fitness (log ratio)” value was at most -4.2.

As for C27G G48C G80A G81A A113G C118A C132U G136C A150G, the “polymerase ribozyme fitness (log ratio)” value was at most -4.2.

As for C27G U33G A52C G88C A119G A121G C123G A142G, the “polymerase ribozyme fitness (log ratio)” value was at most -4.2.

For the variant C27U C87U A142U, the “polymerase ribozyme fitness (log ratio)” value is -3.03.

On to C27G U102G G133A U151A, for which the “polymerase ribozyme fitness (log ratio)” value is at most -4.2.

Consider A28C G50U C54G G83A C95U, for which the “polymerase ribozyme fitness (log ratio)” value was at most -4.2.

Consider A28C A30U G59A C72A C96U, for which the “polymerase ribozyme fitness (log ratio)” value was at most -4.2.

In the case of A28C G84U G88C A91G G124U, the “polymerase ribozyme fitness (log ratio)” value is at most -4.2.

C27U A91G C95A A110C A137U: the “polymerase ribozyme fitness (log ratio)” value was at most -4.2.

In the case of A28C A41U C43U G46C C85A U130G U135C, the “polymerase ribozyme fitness (log ratio)” value is at most -4.2.

On to C27U U139A, for which the “polymerase ribozyme fitness (log ratio)” value is at most -4.2.

Turning to C27U C35U A49U C51G U53A G86U U151G, the “polymerase ribozyme fitness (log ratio)” value was at most -4.2.

Take A28U A37C U44A A106U A119G: the “polymerase ribozyme fitness (log ratio)” value is at most -4.2.

In the case of C27G G80A C93U C108A A110C G126A, the “polymerase ribozyme fitness (log ratio)” value was at most -4.2.

On to A28U A40U U82C U148A, for which the “polymerase ribozyme fitness (log ratio)” value is at most -4.2.

Take A28U A37C C87A G117A G140C: the “polymerase ribozyme fitness (log ratio)” value was at most -4.2.

Take C27G C57U C96G C116U G117C: the “polymerase ribozyme fitness (log ratio)” value is at most -4.2.

In the case of C27U U53A U61A C69G G88C, the “polymerase ribozyme fitness (log ratio)” value is at most -4.2.

As for A28C C35U U77C A97G C123U C132G U134A, the “polymerase ribozyme fitness (log ratio)” value is at most -4.2.

Consider C27G C108G, for which the “polymerase ribozyme fitness (log ratio)” value is at most -4.2.

On to A28C A39U, for which the “polymerase ribozyme fitness (log ratio)” value was at most -4.2.

Regarding C27G U61A G67A G86U C108A, the “polymerase ribozyme fitness (log ratio)” value is at most -4.2.

Turning to A28G A60C C93U C131A G141C, the “polymerase ribozyme fitness (log ratio)” value is at most -4.2.

For A28U A30U C36U C38U U77A U109A G126A, the “polymerase ribozyme fitness (log ratio)” value is at most -4.2.

Take A28C G59C G92U A120U U145C: the “polymerase ribozyme fitness (log ratio)” value is at most -4.2.

As to C27G U55G G59C A60U C95U A98U G140A U144A, the “polymerase ribozyme fitness (log ratio)” value was at most -4.2.

As to A28U A37C G42U G67A G86U G124U, the “polymerase ribozyme fitness (log ratio)” value is at most -4.2.

For the variant C27U A52U U82G C114G, the “polymerase ribozyme fitness (log ratio)” value was at most -4.2.

For the variant A28C A47C G62C C72U C76A C93G C99A, the “polymerase ribozyme fitness (log ratio)” value is at most -4.2.

In the case of A28C C51A C57A G88A C93G, the “polymerase ribozyme fitness (log ratio)” value was at most -4.2.

Regarding C27U G50C G65A A66C U78G C85U A115G, the “polymerase ribozyme fitness (log ratio)” value is at most -4.2.
